# Assay results as given in PubChem BioAssay (Tox21).
# Values joined by “and” are separate entries in the source; they are usually repeats but may differ in a detail not shown here. Identical values can stand only once. Inconclusive means that the source gave no clear call. Such entries were picked first, then a sample of the others. For some assays here: Potencies beside an inconclusive call are fits to weak or partial responses and may not hold up. Some compounds were tested as several samples or in several runs, with calls that do not always agree. Active and inactive are the calls of the source. Unless noted, the call rests on the fitted dose curve.
# How the values were obtained:
# [1] = biological target: Peroxisome proliferator-activated receptor gamma (Homo sapiens) (UniProt P37231); assay: qHTS assay to identify small molecule agonists of the peroxisome proliferator-activated receptor gamma (PPARg) signaling pathway (AID 743094; active means well fitted activation curve with a large enough effect in the signal ratio in the repeat runs, not every such curve was filed as active; inconclusive means weak or mixed curves, or effect the other way; inactive means no such curve, though single readings can be large or run the other way; the % refers to the signal ratio; on activation: on the % scale 0 is the no-effect control and ±100 the full control effect); settings: HEK293H PPARg-UAS-bla, beta-lactamase FRET ratio, 17 h; activation: at 57 µM (top of the series) unless noted
# UniProt P37231, sequence (P37231 whole entry, looked up): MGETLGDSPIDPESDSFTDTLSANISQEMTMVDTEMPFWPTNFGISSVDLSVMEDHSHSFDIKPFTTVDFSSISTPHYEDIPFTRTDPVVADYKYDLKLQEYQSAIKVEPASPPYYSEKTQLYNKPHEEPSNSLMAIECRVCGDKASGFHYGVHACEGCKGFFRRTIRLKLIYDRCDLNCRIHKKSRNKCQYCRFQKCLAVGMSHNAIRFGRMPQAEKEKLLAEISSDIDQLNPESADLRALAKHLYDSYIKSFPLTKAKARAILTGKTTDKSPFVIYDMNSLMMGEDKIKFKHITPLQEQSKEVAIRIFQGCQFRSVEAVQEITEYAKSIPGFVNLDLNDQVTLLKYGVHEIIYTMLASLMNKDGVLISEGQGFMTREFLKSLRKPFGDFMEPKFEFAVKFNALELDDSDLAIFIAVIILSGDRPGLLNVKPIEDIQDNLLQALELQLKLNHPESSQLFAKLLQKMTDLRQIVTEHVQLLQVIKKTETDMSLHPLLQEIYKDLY
# In short: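 Agonism was assessed in a beta-lactamase reporter system, HEK293H cells with a stably integrated UAS-bla construct under PPARg control; the 17 h treatment at 37C preceded a 1 h room-temperature FRET substrate read.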
# [2] = biological target: Peroxisome proliferator-activated receptor gamma (Homo sapiens) (UniProt P37231); assay: qHTS assay to identify small molecule antagonists of the peroxisome proliferator-activated receptor gamma (PPARg) signaling pathway (AID 743191); settings: HEK293H PPARg-UAS-bla, beta-lactamase ratio, antagonist, 17 h; further: nearly all actives have a fitted effect of over 30% in size; on ratio activity, negative = inhibition: on the % scale 0 is the no-effect control and ±100 the full control effect
# In short: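 GeneBLAzer PPARg UAS-bla HEK293H cells carrying a UAS-driven beta-lactamase reporter were plated at 3000 cells/well, preincubated 5 h at 37C, then given compound for 17 h at 37C; LiveBLAzer B/G FRET substrate was read after 1 h at room temperature.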
# [3] = qHTS assay to identify small molecule antagonists of the peroxisome proliferator-activated receptor gamma (PPARg) signaling pathway - cell viability counter screen (AID 743194; active means well fitted curve in the direction sought with a large enough effect in the repeat runs; inconclusive means weak or mixed curves; inactive means no such curve, though single readings can be large; an effect the other way counts as inactive or inconclusive; further: nearly all actives have a fitted effect of over 55% in size; on activity change, negative = cytotoxicity: on the % scale 0 is the no-effect control and ±100 the full control effect); settings: PPARg-bla HEK293H viability, CellTiter-Glo luminescence, 17 h, co-treated with 50 nM rosiglitazone; activity change, negative = cytotoxicity: at 62.6 µM (top of the series) unless noted
# In short: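 PPARg-UAS-bla HEK293H cells were plated, rested 5 h at 37 C, then treated with compounds plus rosiglitazone (50 nM final) for 17 h at 37 C; viability was then read by CellTiter-Glo luminescence after 30 min at room temperature.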
# [4] = qHTS assay for small molecule agonists of the antioxidant response element (ARE) signaling pathway (AID 743202; active means well fitted activation curve with a large enough effect in the signal ratio in the repeat runs, not every such curve was filed as active; inconclusive means weak or mixed curves, or effect the other way; inactive means no such curve, though single readings can be large or run the other way; the % refers to the signal ratio; on activation: on the % scale 0 is the no-effect control and ±100 the full control effect); settings: HepG2 ARE-bla reporter, beta-lactamase FRET, 16 h; activation: at 73.3 µM (top of the series) unless noted
# In short: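 Steps: seed ARE-bla HepG2 cells (2,000/well); incubate 5 h at 37 C; add compounds by pin tool; incubate 16 h at 37 C; add FRET substrate; read fluorescence after 2 h at RT.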
# [5] = qHTS assay to identify small molecule agonists of the peroxisome proliferator-activated receptor delta (PPARd) signaling pathway - cell viability counter screen (AID 743211; active means well fitted curve in the direction sought with a large enough effect in the repeat runs; inconclusive means weak or mixed curves; inactive means no such curve, though single readings can be large; an effect the other way counts as inactive or inconclusive; further: nearly all actives have a fitted effect of over 55% in size); settings: PPARd-bla HEK293H viability, CellTiter-Glo luminescence, 17 h; activity change, negative = cytotoxicity: at 62.6 µM (top of the series)
# In short: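 Counter screen for cytotoxicity run in parallel with the PPARd reporter screen. Beta-lactamase reporter HEK293H cells exposed to compounds 17 h; ATP-based CellTiter-Glo luminescence quantified viability.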
# [6] = qHTS assay for small molecule agonists of the antioxidant response element (ARE) signaling pathway - cell viability counter screen (AID 743203); settings: ARE-bla HepG2 viability, CellTiter-Glo luminescence, 16 h; viability change, negative = cytotoxic: at 73.3 µM (top of the series); further: nearly all actives have a fitted effect of over 55% in size
# In short: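 ATP content via CellTiter-Glo luminescence served as the viability measure. Cells: ARE-bla HepG2, 2,000 per well. Exposure: 16 hrs, 37C/5% CO2.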
# [7] = qHTS assay for small molecule activators of the heat shock response signaling pathway - cell viability counter screen (AID 743209; active means well fitted curve in the direction sought with a large enough effect in the repeat runs; inconclusive means weak or mixed curves; inactive means no such curve, though single readings can be large; an effect the other way counts as inactive or inconclusive; further: nearly all actives have a fitted effect of over 50% in size); settings: HSE-bla HeLa viability, CellTiter-Glo luminescence, 5 h; activity change, negative = cytotoxicity: at 62.6 µM (top of the series) unless noted
# In short: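 Compounds dissolved in DMSO were added to overnight-plated HSE-bla HeLa cells and left 5 h at 37 C. Cell viability was quantified by luminescence using CellTiter-Glo.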
# [8] = qHTS assay for small molecule activators of the heat shock response signaling pathway (AID 743210; active means well fitted activation curve with a large enough effect in the signal ratio in the repeat runs, with a control signal flat, not every such curve was filed as active; inconclusive means weak or mixed curves; the % refers to the signal ratio); settings: HeLa HSE-bla reporter, beta-lactamase ratio, 5 h; activation: at 62.6 µM (top of the series) unless noted
# In short: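 Activation of heat shock element-controlled beta-lactamase expression is measured in HeLa cells by LiveBLAzer FRET fluorescence, with compound exposure lasting 5 h at 37 C and substrate loading 2.5 h at room temperature.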
# [9] = ratio activity, negative = inhibition: at 62.6 µM (top of the series) unless noted
# Potency means the concentration at half of the fitted maximal effect; tags describe the fitted curve by direction and shape or compound fluorescence and quenching.
compound,measurement,setting,value
CCCCOCCO,Potency,[1],inactive
same,"ratio activity, negative = inhibition",[2]; at 62.6 µM (top of the series),inactive: -9.57%
same,"ratio activity, negative = inhibition",[2]; [9],inconclusive: 9.92%
same,Potency,[3],"inconclusive: 61.6 µM [rising, single point]"
same,Potency,[4],inactive
CCCCC(CC)COCCO (configuration not stated),Potency,[1],inactive
same,Potency,[2]; [9],inactive
same,Potency,[3],inactive
N=C(N)N,Potency,[1],inactive
same,"ratio activity, negative = inhibition",[2]; [9],inconclusive: 3.61%
C[C@]12CC[C@@H]3c4ccc(O)cc4CC[C@H]3[C@@H]1CC[C@H]2O,activation,[1],inconclusive: -12.9%
same,Potency,[2]; [9],inconclusive: 13.8 µM
same,"ratio activity, negative = inhibition",[2]; [9],inconclusive: -34.1% [at 81.1 µM]
same,Potency,[3],"inconclusive: 11 µM [cytotoxic, partial curve, poor fit]"
O[C@@H](CNC[C@H](O)[C@H]1CCc2cc(F)ccc2O1)[C@@H]1CCc2cc(F)ccc2O1,Potency,[1],"inconclusive: 2.68 µM [inhibitor, full curve]"
same,Potency,[2]; [9],inconclusive: 26.6 µM [partial curve]
same,Potency,[3],active: 29.8 µM
same,Potency,[4],"inconclusive: 37.6 µM [falling, single point]"
same,Potency,[5],active: 23.7 µM
CCCCN1C[C@H](O)[C@@H](O)[C@H](O)[C@H]1CO,Potency,[1],inactive
same,"ratio activity, negative = inhibition",[2]; [9],inconclusive: 9.96%
CC(=O)c1ccc2ccc3ccccc3c2c1,activation,[1],inconclusive: 1.61%
same,Potency,[2]; [9],inactive
same,Potency,[3],"inconclusive: 0.0137 µM [rising, full curve, poor fit]"
CCCCCC/C=C/CCCCCCCC(=O)O,activation,[1],inconclusive: 16.6%
same,Potency,[2]; [9],"inconclusive: 13.8 µM [activator, full curve]"
same,"ratio activity, negative = inhibition",[2]; [9],inconclusive: 0.671%
same,Potency,[6],inactive
C=C1CC[C@H](O)CC1=C/C=C1\CCC[C@]2(C)[C@@H]([C@H](C)/C=C/[C@H](C)C(C)C)CC[C@@H]12,Potency,[1],inconclusive: 54.5 µM [single point] and inconclusive: 21.9 µM
same,activation,[1],inconclusive: -15.6%
same,Potency,[4],active: 13.6 µM and active: 24.3 µM
same,Potency,[7],"inconclusive: 61.1 µM [cytotoxic, single point]"
same,Potency,[5],active: 54.5 µM and active: 6.16 µM
COCC(C)N (configuration not stated),Potency,[1],inactive
same,"ratio activity, negative = inhibition",[2]; at 62.6 µM (top of the series),inactive: -6.53%
same,"ratio activity, negative = inhibition",[2]; [9],inconclusive: 9.81%
CC1CCCO1 (configuration not stated),Potency,[1],inactive
same,Potency,[2]; [9],"inconclusive: 53.8 µM [inhibitor, partial curve, poor fit]"
same,Potency,[3],inactive
same,activation,[4],inconclusive: 7.32%
O=C(O)CP(=O)(O)O,Potency,[1],inactive
O=C(O)c1ccccc1,activation,[1],inconclusive: 1.91% [at 78.9 µM]
same,"ratio activity, negative = inhibition",[2]; at 5.95 µM (top of the series),inactive: -6.79%
same,"ratio activity, negative = inhibition",[2]; at 62.6 µM (top of the series),inconclusive: 20.4% and inactive: 11.2%
same,"ratio activity, negative = inhibition",[2]; at 81.1 µM (top of the series),inactive: 0.214% and inconclusive: 23.9%
same,Potency,[7],"inconclusive: 23 µM [cytotoxic, partial curve, poor fit]"
O=[N+]([O-])c1cccc(C(F)(F)F)c1,Potency,[1],inactive
same,"ratio activity, negative = inhibition",[2]; [9],inconclusive: 18.3% [at 81.1 µM]
CC1(C)[C@@H](O)CC[C@]2(C)[C@H]3C(=O)C=C4[C@@H]5C[C@@](C)(C(=O)O)CC[C@]5(C)CC[C@@]4(C)[C@]3(C)CC[C@@H]12,Potency,[1],inconclusive: 17.2 µM
same,Potency,[2]; [9],inconclusive: 54.3 µM
same,Potency,[3],inconclusive: 54.3 µM [cytotoxic]
same,Potency,[4],"inconclusive: 76.1 µM [falling, single point]"
same,Potency,[6],"inconclusive: 67.8 µM [cytotoxic, single point]"
same,Potency,[8],inconclusive: 52.3 µM
same,Potency,[5],active: 38.5 µM
C[C@@H]1NC(=O)[C@@H](N)CNC(=O)[C@H](C2CCNC(N)=N2)NC(=O)/C(=C/NC(N)=O)NC(=O)[C@H](CNC(=O)C[C@@H](N)CCCN)NC1=O (some centres not stated),Potency,[1],inactive
same,"ratio activity, negative = inhibition",[2]; [9],inactive: 0.698% [at 0.55 µM]
COC(=O)c1ccccc1OC,Potency,[1],inactive
same,"ratio activity, negative = inhibition",[2]; [9],inconclusive: 27.1%
same,Potency,[3],inactive
same,activation,[8],inconclusive: 0.697%
Oc1ccc(OCc2ccccc2)cc1,Potency,[1],"inconclusive: 11.5 µM [rising, partial curve, poor fit]"
same,activation,[1],inconclusive: -7.87%
same,Potency,[2]; [9],"inconclusive: 15 µM [activator, full curve, poor fit]"
same,"ratio activity, negative = inhibition",[2]; [9],inconclusive: -48.3%
same,Potency,[4],active: 21.2 µM
CN(C)CCOC(=O)C(c1ccccc1)C1(O)CCCC1 (configuration not stated),Potency,[1],inactive
same,"ratio activity, negative = inhibition",[2]; [9],inconclusive: -2.62%
same,Potency,[4],inactive
CC/C=C\C/C=C\C/C=C\CCCCCCCC(=O)OCC,Potency,[1],inconclusive: 56.2 µM [activator]
same,"ratio activity, negative = inhibition",[2]; [9],inconclusive: -12.8% [at 81.1 µM]
same,activation,[4],inconclusive: 24.7% [at 94.8 µM]
same,Potency,[8],inconclusive: 56.2 µM
Nc1cccc(O)c1,Potency,[1],inactive
same,Potency,[2]; [9],"inconclusive: 56.6 µM [inhibitor, partial curve]"
same,Potency,[4],inactive
same,Potency,[8],inactive
